About 14,000 (4.5%) of roughly 310,000 compounds showed an effect of 50% or more. The effect is printed as a negative number. The list shows a part of the results.
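Note: peak tail current of the secondary pulse compared with the same well before compound.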

Chain of human ether-à-go-go-related gene (hERG) potassium channel (Q12809 whole entry, looked up): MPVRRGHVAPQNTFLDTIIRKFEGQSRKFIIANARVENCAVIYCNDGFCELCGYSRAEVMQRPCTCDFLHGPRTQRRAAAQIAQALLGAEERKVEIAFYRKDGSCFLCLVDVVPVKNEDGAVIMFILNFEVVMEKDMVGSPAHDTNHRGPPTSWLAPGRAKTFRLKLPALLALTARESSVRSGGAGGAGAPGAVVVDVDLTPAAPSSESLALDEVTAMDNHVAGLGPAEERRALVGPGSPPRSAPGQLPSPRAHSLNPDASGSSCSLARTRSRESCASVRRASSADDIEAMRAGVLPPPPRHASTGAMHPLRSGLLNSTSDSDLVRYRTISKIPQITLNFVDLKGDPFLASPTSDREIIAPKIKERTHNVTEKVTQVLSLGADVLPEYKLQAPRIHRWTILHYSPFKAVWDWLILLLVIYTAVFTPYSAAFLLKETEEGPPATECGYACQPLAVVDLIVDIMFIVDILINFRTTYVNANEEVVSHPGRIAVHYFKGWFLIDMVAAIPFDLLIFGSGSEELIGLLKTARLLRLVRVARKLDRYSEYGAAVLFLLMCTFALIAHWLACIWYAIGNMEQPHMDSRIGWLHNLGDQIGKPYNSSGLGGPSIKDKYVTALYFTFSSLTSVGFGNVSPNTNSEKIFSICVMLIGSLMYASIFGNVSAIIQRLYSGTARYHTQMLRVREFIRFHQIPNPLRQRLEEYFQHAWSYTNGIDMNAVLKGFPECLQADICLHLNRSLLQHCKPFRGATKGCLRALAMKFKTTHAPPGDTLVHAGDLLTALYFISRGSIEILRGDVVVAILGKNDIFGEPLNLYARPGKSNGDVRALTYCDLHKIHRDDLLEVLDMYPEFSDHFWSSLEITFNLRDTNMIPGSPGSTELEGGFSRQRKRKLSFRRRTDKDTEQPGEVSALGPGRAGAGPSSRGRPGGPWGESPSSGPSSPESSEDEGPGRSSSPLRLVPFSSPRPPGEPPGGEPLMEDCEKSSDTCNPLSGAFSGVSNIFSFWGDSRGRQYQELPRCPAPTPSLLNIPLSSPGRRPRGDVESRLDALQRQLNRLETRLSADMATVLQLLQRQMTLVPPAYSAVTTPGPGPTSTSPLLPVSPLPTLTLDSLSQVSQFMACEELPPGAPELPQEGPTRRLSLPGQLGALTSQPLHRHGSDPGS

This assay concerns the target human ether-à-go-go-related gene (hERG) potassium channel (human, UniProt Q12809). In words: primary screen, population patch clamp on CHO cells stably expressing hERG.
As for `O=[N+]([O-])c1cc(-n2cccc2)ccc1N1CCOCC1`, the “hERG current change (%, negative = inhibition) at 10uM” value is given as -37.2%.
Next, `COCCCNC(=O)Cn1nnc(-c2ccc(NC(=O)c3cccnc3)cc2)n1`: -1.66%; `CN(C(=O)CSc1nc(N)c2c3c(sc2n1)CSC(C)(C)C3)c1ccccc1`: -7.23%.
The same measure for `COc1ccc(-n2c3c(cc(C(=O)NNc4ccccc4)c2=O)C(=O)CC(C)(C)C3)cc1`: -26.3%.
Take `C=C(C)CN1C(=O)C(=O)N(CC(=C)C)C1=O`: the “hERG current change (%, negative = inhibition) at 10uM” value is 20.2%.
Next, `COc1ccc(Oc2coc3cc(OC(=O)c4cccs4)ccc3c2=O)cc1`: 16.1%; `O=C(Nc1ccccc1C(=O)NCc1ccco1)NC1CCCCC1`: -14.5%.
Next, `CN(CCOC(=O)c1ccc2c(c1)OCCO2)C(C)(C)C.Cl`: 12.4%; `Oc1ccccc1C1=NCCNC(C(F)(F)F)=C1`: 15.5%.
The same measure for `COc1ccc(-c2cn(CCO)c(CCN)n2)cc1`: 4.1%; for `O=Cc1cn(CCOc2ccccc2F)c2ccccc12`: 4.35%; for `Cc1nn(C)c(C)c1NC(=O)C12CC3CC(CC(C3)C1)C2`: 2.86%.
Turning to `O=C(O)/C(=C\c1ccco1)NC(=O)c1cccc2ccccc12`, the “hERG current change (%, negative = inhibition) at 10uM” value is given as -3.21%.
The same measure for `O=S1(=O)N=C(Nc2ccc(N3CCOCC3)cc2)c2ccccc21`: -25.5%.
The same measure for `Cc1cccc(C)c1OCC(=O)Nc1ccncc1`: 1.15%; for `COCCNC(=O)C(c1ccc(Cl)cc1)N(C(=O)CCC(=O)Nc1ccccn1)C1CCCC1` (centres unmarked): 2.25%; for `Cc1cc(C)cc(NS(=O)(=O)c2ccc(-c3cnc(C4CC4)o3)cc2)c1`: 14.1%.
Next, `CC(=O)N1CCN(C2c3cccc4cccc(c34)C2NS(=O)(=O)c2ccccc2)CC1` (centres unmarked): -37.7%; `COc1ccc(CNn2c(-c3ccccc3F)nc3ccccc3c2=O)cc1OC`: 22.5%; `O=[N+]([O-])c1ccc(C(O)C[n+]2ccccc2)cc1.[I-]` (centres unmarked): 12%.
As for `CC(NS(C)(=O)=O)C(c1cccs1)N1CCN(c2ccc(F)cc2)CC1` (centres unmarked), the “hERG current change (%, negative = inhibition) at 10uM” value is given as -11.4%.
With `O=c1nccc(N/N=C/c2ccccc2)[nH]1`, the “hERG current change (%, negative = inhibition) at 10uM” value turned out to be 12.2%.
Next, `COc1ccccc1CNC(=O)C(C)n1nc(C)n2c(cc3occc32)c1=O` (centres unmarked): -7.85%.
For `Cc1ccccc1C(=O)N(C)c1ccccc1C(=O)NCc1ccccc1`, the “hERG current change (%, negative = inhibition) at 10uM” value is -21%.
Next, `CCn1c(C)c(C)c2cc(C(=O)NCCN3CCOCC3)ccc21`: -9.62%.
`Cc1ccc(N(CC(=O)NCc2ccncc2)S(C)(=O)=O)cc1`: the “hERG current change (%, negative = inhibition) at 10uM” value worked out at 10.6%.
Next, `CCOc1ccc(CCNc2cc(C)nc3ncnn23)cc1OCC`: -5%; `CCOC(=O)C1CCN(C(=O)c2sc3nc(C)nc(N4CCC(C)CC4)c3c2C)CC1`: -52.7%; `Cc1cc(/C=N/NC(=O)c2cccc(F)c2)c(C)n1-c1ccccc1`: 0.174%.
Consider `COc1cc(O)ccc1C(=O)CCc1ccc(O)cc1`, for which the “hERG current change (%, negative = inhibition) at 10uM” value is given as -45.4%.
The same measure for `CC(=O)c1ccc(O)c(CSC2=NCCS2)c1`: 19.8%; for `O=C(CSc1ncn[nH]1)N1N=C2/C(=C/c3ccccc3)CCCC2C1c1ccccc1` (centres unmarked): 8.08%; for `CCC(=O)NC(=S)NNC(=O)c1ccc(OC)cc1`: 10.2%.
With `CCOC(=O)N1CCN(C(=O)c2cc3ccc(OC)cc3[nH]2)CC1`, the “hERG current change (%, negative = inhibition) at 10uM” value came out at 13.2%.
The same measure for `O=C(/C=C/c1ccccc1)NC(=S)N1CCSCC1`: 6.97%; for `Cc1ccc(CSCC(=O)N(C)CC(=O)Nc2c(Cl)cccc2Cl)cc1`: -9.07%.
The same measure for `COc1cc(CN2CCNCC2)cc(OC)c1OC.Cl`: 5.64%; for `Cc1cc(=O)n(CC=C(Cl)Cl)c2ccccc12`: -15%.
Next, `Cc1c(C(=O)Oc2ccc(F)cc2)sc2ncn(Cc3cccc(F)c3)c(=O)c12`: 12.9%; `Cn1cccc1C(=O)NC(=O)COC(=O)CNC(=O)c1ccc(Cl)cc1Cl`: 9.15%.
As for `C#CCOCCOCCOCCNc1nc(N2CCN(C(=O)[C@H](CCC(=O)O)n3cc(C(N)[C@H](C)CC)nn3)CC2)nc(N2CCN(C(=O)[C@H](Cc3cc4ccccc4[nH]3)n3cc(C(N)[C@H](C)CC)nn3)CC2)n1.Cl` (some centres unmarked), the “hERG current change (%, negative = inhibition) at 10uM” value is reported as 8.92%.
Consider `Cc1ccc(-c2cc(C)nc3ncnn23)cc1`, for which the “hERG current change (%, negative = inhibition) at 10uM” value is 11.2%.
Turning to `Cc1cccc(N2CCN(C(=O)c3cc4ccccc4oc3=O)CC2)c1C`, the “hERG current change (%, negative = inhibition) at 10uM” value is on record as -40.8%.
For the compound `COc1ccc(CCNC(=O)CS(=O)(=O)Cc2nc(-c3ccccc3Cl)oc2C)cc1OC`, the “hERG current change (%, negative = inhibition) at 10uM” value was -3.23%.
Consider `CC(=O)Nc1cc(-c2nn(C)c(=O)c3ccccc23)ccc1N1CCCCC1`, for which the “hERG current change (%, negative = inhibition) at 10uM” value is reported as 24.8%.
Next, `COc1cc(N=Nc2c(O)c3ccccc3[nH]c2=O)c(OC)cc1N=Nc1ccccc1`: 20.5%; `Cc1ccc(CN2CCc3c(OCC(=O)Nc4cccc(C)c4C)cccc3C2=O)cc1`: -4.51%.
The same measure for `O=C(CN1CCOCC1)N/N=C/c1ccco1`: 17.1%; for `CC(Oc1cccc(Cl)c1)C(=O)Nc1nc(-c2ccccn2)cs1` (centres unmarked): 4.19%; for `CC1(C)CC2CC(C)(CN2CC(O)COc2ccccc2)C1.O=C(O)C(=O)O` (centres unmarked): -41.5%.
Next, `O=C(NNC(=O)c1cc(Cl)ccc1O)c1cccc(S(=O)(=O)N2CCOCC2)c1`: 17.5%.
For `O=C(Nc1c2c(nn1-c1ccc([N+](=O)[O-])cc1)CS(=O)(=O)C2)c1ccccc1F`, the “hERG current change (%, negative = inhibition) at 10uM” value is -5.64%.
`Cc1cc(=O)n(C)c(=O)n1CCCCCOc1cccc([N+](=O)[O-])c1`: the “hERG current change (%, negative = inhibition) at 10uM” value is given as -57.9%.
The same measure for `CCN1C(=S)SC(=O)C1=C1C=C(C)N(Cc2ccco2)C(C)=C1`: -12.4%; for `CCc1nn(CC(=O)NCCCN2CCCC2=O)c(=O)c2cc3sccc3n12`: -12.3%.
Next, `CCCCOc1ccc(/C=C/C(=O)OCC(=O)N2CC(=O)Nc3ccccc32)cc1OCC`: 21.2%; `COc1ccc(OC)c(CC(=O)Nc2cc(S(=O)(=O)N3CCCCC3)ccc2C)c1`: -18.5%; `C=CCNc1ccc(N2C(=O)CCCC2=O)cc1[N+](=O)[O-]`: 13.7%.
Next, `CCCCC(CC)CNC(=O)C1C2C=CC(C2)C1C(=O)O` (centres unmarked): -4.63%; `Cc1oc2ccc(OCc3ccccc3Cl)cc2c1C(=O)O`: 0.0277%; `CC(C)(C)NC(=O)COC(=O)c1cc(S(=O)(=O)N2CCCCC2)ccc1N1CCOCC1`: -6.23%.
Regarding `O=[N+]([O-])c1ccccc1OCCOCCOc1cccc2cccnc12`, the “hERG current change (%, negative = inhibition) at 10uM” value was -28.4%.
Next, `Nc1nccc(/C=C/c2c(F)cccc2Cl)n1`: -2.42%; `C/C(=N\Nc1ccc(Cl)cc1)c1c(O)cc(C)oc1=O`: 15.3%.
Next, `Cc1nn(Cc2ccc(Cl)cc2)c(C)c1NC(=O)C(c1ccccc1)c1ccccc1`: -44.5%.
Next, `Cc1ccc(-n2c(N)c(C(=O)N3CCOCC3)sc2=S)cc1`: -25%; `CCn1c(O)c(/C=C2\C=Nc3ccccc32)sc1=Nc1ccccc1`: 14.5%; `O=C(Nc1ccccc1)c1ccc(S(=O)(=O)N2CCCCC2)cc1`: -35.3%.
In the case of `C/C(=N\NC(=O)c1cccs1)c1ccc2ccccc2c1`, the “hERG current change (%, negative = inhibition) at 10uM” value is 16.6%.
In the case of `COc1ccccc1N1CCN(Cc2cc(Br)c(O)c3ncccc23)CC1`, the “hERG current change (%, negative = inhibition) at 10uM” value was -8.81%.
With `COc1ccc(OCCOC(=O)c2cccs2)cc1`, the “hERG current change (%, negative = inhibition) at 10uM” value is on record as -0.463%.
The same measure for `COC(=O)c1ccc(COc2ccccc2/C=N/O)o1`: 2.96%.
Regarding `CC(=O)CSc1nnc(CN2C(=O)CSc3ccc(C(F)(F)F)cc32)n1C`, the “hERG current change (%, negative = inhibition) at 10uM” value is -12.3%.
Next, `Cc1ccc(NC(=O)c2ccoc2C)cc1C`: -12.8%; `CCOc1cc(S(=O)(=O)N(CC)CC)ccc1Br`: -11.8%; `CCOc1ccc(CN(CCO)CCO)cc1C(=O)OC`: -7.24%.
Take `CCOc1ccc(OCc2ccc(C(=O)NC(C)C)o2)cc1`: the “hERG current change (%, negative = inhibition) at 10uM” value turned out to be 10.3%.
The same measure for `COc1ccc(C(=O)Nc2nc(C)cs2)cc1S(=O)(=O)N1CCCC1`: -13.5%; for `CCOC(=O)c1c(N2CCCCC2)c2ccccc2[nH]c1=O`: 11%; for `Cc1ccc(NC(=O)CN2CCc3cc4c(cc3C2C)OCCCO4)cc1C` (centres unmarked): -3.16%.
For `CCOc1ccc(N(CC(=O)NC2CCCCC2)C(=O)CCC(=O)Nc2cc(C)ccn2)cc1`, the “hERG current change (%, negative = inhibition) at 10uM” value is 8.21%.
Take `CCN1CCN(C(=O)c2ccc(Cl)c(S(=O)(=O)N(C)c3ccccc3)c2)CC1`: the “hERG current change (%, negative = inhibition) at 10uM” value is -20.6%.
Next, `CC(OC(=O)CCN=C1NS(=O)(=O)c2ccccc21)C(=O)Nc1ccc(F)cc1` (centres unmarked): -5.54%; `O=C(Nc1cccc(NC(=O)c2ccccc2[N+](=O)[O-])c1)c1ccccc1Cl`: 7.19%; `O=c1[nH]n(-c2ccc(Cl)cc2)c2ncccc12`: 6.15%.
Next, `CN(C)S(=O)(=O)c1ccc(NC(=O)CN2CCCC2c2ccc3c(c2)OCCCO3)cc1` (centres unmarked): -9.91%.
Next, `CCS(=O)c1ccccc1C(=O)O` (centres unmarked): 7.31%.
Regarding `CCOc1[nH]n(-c2ccc(Cl)cc2)c(=O)c1C=NCC(=O)OC`, the “hERG current change (%, negative = inhibition) at 10uM” value was -33.2%.
The same measure for `Cc1ccc(C)c(-n2ccnc2SCC(=O)O)c1`: 2.03%.

The values are drawn from paper PMC4336329 (PLoS ONE, 2015).
